# Test results as given in ChEMBL document CHEMBL4888484, “Replenishing the malaria drug discovery pipeline: Screening and hit evaluation of the MMV Hit Generation Library 1 (HGL1) against asexual blood stage Plasmodium falciparum ,using a nano luciferase reporter read-out” (2022).
# In all, about 150,000 compounds went through this assay and about 540 (0.36%) showed an effect of 50% or more. The list shows a part of the results.
# Test system: Plasmodium falciparum
# Assay: Primary screen in NF54 nanoGlo assay, in single point, at 2uM, 72h; a lower Z score goes with more inhibition
# Format: functional, Erythrocyte
# Settings: timepoint 72 hour
Structure (SMILES),% Inhibition [%],Z score
COc1cccc(C(=O)N2[C@H](C(=O)NC3CCN(C)CC3)COC23CCC(C)CC3)c1 (stereo partly drawn),-6,0.81
CCn1nc(C)c(CCn2ccnc2-c2ccc(CO)o2)c1C,-6,1.06
CN(C)c1nc(C2CC(N)C2)cc(N(C)Cc2ccc3c(c2)OCO3)n1 (stereo not drawn),0,0.03
C[C@@]1(C(=O)NCc2nnnn2CC2CC2)CCCNC1=O,31,-3.53
CC(C)CCOc1ccc(CN2CC(C(=O)O)C2)cc1,-17,1.97
C[C@H]1c2cc(Cl)cc(Cl)c2CCN1c1nccc(-n2cccn2)n1,-19,2.45
CC[C@H]1C(=O)Nc2sc(C)c(C)c2C(=O)N1C,-3,0.41
COc1ccc(NS(=O)(=O)N2CCc3ccccc3C2)cn1,-2,0.22
COc1cc(F)c(CN2CCC3(CC2)CNC(=O)C3)cc1OC,-34,7.24
CCc1ncsc1NS(=O)(=O)c1cnc(-c2ccccc2)nc1,-11,1.08
CCS(=O)(=O)N1CC(=O)N(c2ccc(OC)cc2OC)[C@](C)(C(=O)NC2CCCC2)C1,-7,0.91
Cc1ccc(CN2C[C@@H](CO)[C@H](NC(=O)C3CCC3)C2)o1,-6,0.86
CCc1cccnc1NC(=O)[C@@H](OC)C(C)C,4,-0.56
CC(C)[C@@H](O)Cc1nc(-c2ccc(Br)o2)no1,-7,0.59
CCC1CN(CCn2cccn2)C(CC)CN1CCn1cccn1 (stereo not drawn),-9,0.95
Cc1occc1C(=O)N[C@H]1CCCCNC1=O,10,-1.35
CCN1CCN(C(=O)CCc2ccc(-c3ccc(C)cc3C)n2-c2ccc(CC#N)cc2)CC1,-11,1.12
COc1cccc(C[C@H](C)NC(=O)c2nc(=O)[nH][nH]2)c1,3,-0.35
CCN(C(C)=O)c1nc(CN2CC(n3cc(C)cn3)C2)cs1,-1,0.16
Cc1cc(Cl)ccc1Nc1nc(=O)[nH]nc1C,-6,0.87
CCS(=O)(=O)N(C)CC(=O)N1CCN(C)c2ccc(Cl)cc21,-10,1.47

Structure (SMILES),% Inhibition [%],Z score
COc1cc(C)nc(N(C)Cc2csnc2OC)n1,5,-0.75
Cc1cc(C(=O)N2CCCc3ccc(C)c(Br)c32)ncn1,-2,0.29
Cc1ccc(NC(=O)N2CCN(c3nccc(C(C)C)n3)CC2)c(C)n1,-6,0.88
N#Cc1cccnc1NCCc1nc2c(s1)COCC2,-13,2.45
CCN1CC[C@@]2(CCC1=O)CN(C1Cc3ccccc3C1)CCN2C,4,-0.52
CCOc1ccc(N2C[C@@H](C(=O)N3CCN(C)CC3)CC2=O)cc1,1,-0.17
C=CCOc1ccc(CNc2cnn(CC(=O)N3CC(C)OC(C)C3)c2)cc1Cl (stereo not drawn),-3,0.62
CN(Cc1ccccc1)C(=O)N1CCC[C@H](n2ccnn2)CC1,-6,0.89
COc1ccc(CC(=O)N2CCOC[C@H](Oc3cccnc3)C2)cc1,-11,1.41
O=S(=O)(Nc1ccc(F)cc1Cl)c1ccc(-c2cnc(C3CC3)o2)cc1,-6,1.14
O=C(Cc1ccc(-n2cnnc2)cc1)N1CC[C@H]1C1CC1,12,-1.51
O=C(Nc1cc(S(=O)(=O)N2CCOCC2)ccc1N1CCOCC1)[C@@H]1COc2ccccc2O1,-7,1.05
COC(=O)N1CCC[C@H](c2nccn2CC2CCC2)C1,-7,1.3
CCCN(C(=O)c1ccon1)C1CC(OCC)C1(C)C (stereo not drawn),-11,1.44
O=C(N[C@H](c1cccnc1)C(F)(F)F)c1cn(CC2CCCCC2)nn1,-10,1.79
CN(C)c1ccc(CNC(=O)c2cc(S(=O)(=O)N3CCCCCC3)ccc2Cl)cc1,-1,0.08
O=C(C[C@@H]1NC(=O)NC1=O)Nc1nc2ccccc2s1,0,-0.01
CN1CC[C@@H](c2nc(-c3cccnc3OCC(F)F)no2)S1(=O)=O,2,-0.23
C=C(C)CN(CC)C(=O)CN1CCCC(C2(C)NC(=O)NC2=O)C1 (stereo not drawn),-7,1.14
COCCOCc1ncnn1-c1ccc(Cl)cc1C,-12,2.14
O=C1[C@@H]2Cc3c([nH]c4ccccc34)C(c3ccccc3)N2C(=O)CN1C1CCCCC1 (stereo partly drawn),-8,1.52

Structure (SMILES),% Inhibition [%],Z score
Cc1nc(CCC(=O)N(c2cccnc2)C(C)C)oc1-c1ccccc1,-1,0.17
CNC(=O)NCC(=O)NC(C)(C)Cc1cccc(Br)c1,-10,0.85
CCN1C[C@@H](NC(=O)c2cccc(C(=O)NC3CC3)c2)CC1=O,-5,0.91
CCCCn1nc(C)nc1Cc1c(C)nc(CC)[nH]c1=O,9,-1.77
CCn1cc(CN2CCN(Cc3ccccc3)[C@H]3CS(=O)(=O)C[C@H]32)cn1,0,0.09
Cc1cc(CN2CCC(=O)N(C)CC2)c(C)c(CN2CCCC[C@@H]2C)c1,6,-0.63
COc1ccc([C@H](c2n(Cc3ccccc3)c(C)c(C)[n+]2[O-])C2C(=O)OC(C)(C)OC2=O)cc1CO,-9,1.11
C[C@@H](CNC(=O)C(C)(C)C)c1ccccc1,-10,0.9
CCOC1CC(NC(=O)Nc2cccnc2)C1(C)C (stereo not drawn),-4,0.61
COc1ccccc1OC1(C(=O)O)CCN(CC2CC2)CC1,-13,2.52
Cc1cc(C(=O)N[C@@H](C)C(N)=O)ccc1F,-1,0.09
O=C(NCCCN1CCOCC1)c1ccc(N2C[C@H]3C[C@H](C2)[C@H]2CCCC(=O)N2C3)nc1,0,0.03
O=C(Cn1c(-c2cccs2)cc2ccccc21)NC1CCN(Cc2ccccc2)CC1,3,-0.31
CC1=C(C(=O)c2ccccc2)[C@@](NC(=O)c2cccc(C(F)(F)F)c2)(C(F)(F)F)C(=O)N1CCc1ccc(F)cc1,14,-1.51
O=C(NCC1CCOCC1)Nc1ccc(Cl)cc1-n1cccn1,-2,0.45
COCC(=O)N(Cc1ccccc1)[C@H]1CCOc2ccc(OC)cc21,13,-1.71
O=C1CC[C@@]2(CCCN(c3ccc(F)cn3)C2)CN1Cc1ccccc1,-14,1.62
CCN(CC)C(=O)N1C[C@@H](Oc2cccnc2)C[C@@H]1C(=O)N1CCOCC1,-17,3.03
CN(C(=O)COc1cccnc1)[C@H]1COC[C@@H]1O,-7,0.83
O=C(NCc1ccccn1)c1cc(-c2ccccc2)cc(Cl)c1O,-2,0.26
COCC(=O)N1CCc2nc(N3CCCCC3)nc(Oc3ccccc3)c2C1,-7,1.14

Structure (SMILES),% Inhibition [%],Z score
CCC(=O)Nc1ccc(F)c(NC(=O)N(CC)[C@H]2COC[C@@H]2O)c1,-8,1.03
C[C@H]1CCCN(CCCNC(=O)C(=O)Nc2cccc3[nH]ccc23)C1,-1,0.12
CCC1(CC)NC(=O)N(CC(=O)N2CC(C)NC(C)C2)C1=O (stereo not drawn),-9,1.34
Cc1cc(CC(=O)NC2CCCCC2C(N)=O)no1 (stereo not drawn),-1,0.09
COc1cc(CNn2nnnc2N)cc(Br)c1OCc1ccc(Cl)cc1Cl,-32,3.72
O=C(c1cn2c(n1)CCCC2)N1CC[C@H](Cc2nccs2)C1,-2,0.41
O=S(=O)(c1ccc2c(c1)CCN2)N1CCCCCC1,-6,0.87
NC(=NCc1ccc(Cl)cn1)N1CCCCCC1,4,-0.54
Cc1cc(C(F)(F)F)nn1CCNC(=O)CC[C@@H]1NC(=O)NC1=O,-5,0.75
NC(=O)c1cnc(N[C@H]2CCCN(c3ncccn3)C2)c(Cl)c1,9,-1.2
COc1ccc(CC/N=C2\CCCc3ccccc3N2)cc1OC,-1,0.18
CCC1(C)OC(=O)N(CCC(=O)Nc2ccccc2C(F)(F)F)C1(C)O (stereo not drawn),5,-0.68
CCCOc1ccc(CC(=O)NC2(c3nnc[nH]3)CCC2)cc1OCCC,1,-0.21
CC(NC(=O)C1C2CCCCC21)c1nc[nH]n1 (stereo not drawn),-14,2.47
CC1CC(C)CN(C(C)(C)CNC(=O)NC(C)C)C1 (stereo not drawn),-12,2.36
Cc1cnc(C)c(-c2cc(O)c3c(c2)CN(c2ncc(C)c(N)n2)CCO3)n1,0,-0.03
Cc1ccc(CN(C)C(=O)N[C@H]2CCCc3ccccc32)nc1,-9,1.34
O=C1CCCC[C@@](Cc2ccccc2)(C(=O)N2CCN(Cc3ccc4c(c3)OCO4)CC2)N1,-14,1.56
O=S(=O)(c1cn[nH]c1)N1CCCO[C@@H](CN2CCCCC2)C1,-11,1.22
O=S(=O)(Nc1ccc2c(c1)CCC2)c1ccc2c(c1)OCCO2,11,-1.36
C[C@@]1(C(=O)NCc2ccccc2)CCC(=O)N1CCC1=CCCCC1,2,-0.26
